Test results from publication PMC12136788.
The other results are listed elsewhere or left out.

T1: UNK ZnF1-3 (human, UniProt Q9C0B0 31-174)
T1 sequence: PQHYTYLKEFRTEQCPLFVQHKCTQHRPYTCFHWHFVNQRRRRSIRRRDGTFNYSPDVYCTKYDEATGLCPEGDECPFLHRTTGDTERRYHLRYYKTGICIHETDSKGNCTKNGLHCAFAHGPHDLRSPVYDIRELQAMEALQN

B1: chr11:108005878:108005879:+_ENSG00000075239_ENST00000265838|hu_hu|FALSE|FALSE (ssRNA)
RNA: GGGAGUUCUACAGUCCGACGAUCCAUGAUGGCUUUCAUUCCUGAAGCACAAACUUUGUUUAUGGUGGUACAUGGAGUAGAAAUAGGUAAGCCUGCACCCAAUACUGCCUGCCUUGUAGGAGCUUGUCCUUCACCUCCUUGUAGCAACAGAGGAUUGAGCAUCA
B2: chr12:57883053:57883054:+_ENSG00000166986_ENST00000262027|hu_mus|motif|central (ssRNA)
RNA: GGGAGUUCUACAGUCCGACGAUCGGUGAGAUCAUCUUGUUCCCAGCCACAUAACAGAAAAAAAUAUCGGCAGAUUGCACGGGCAGAGAAGAGGUAGUUGCCACUAUCCAGCUGCAAGACAGGGACCUUAGGCCGGGUAAGGAACAACAGAGGAUUGAGCAUCA
B3: chr1:66461122:66461123:+_ENSMUSG00000015222_ENSMUST00000114013|mus_hu|FALSE|FALSE (ssRNA)
RNA: GGGAGUUCUACAGUCCGACGAUCAGGUGAUGGCAAUGGGACUGUGUACUUAUUGAACACACAGUAGCCCAGGUCUUCGAGCUGACUGUCCGUUUUUACAAUGACAUGGUUUUCAUCAGUUACCGGGGGCAAGCCAGUACGACUCAACAGAGGAUUGAGCAUCA
B4: chr2:86371542:86371543:-_ENSG00000132305_ENST00000449247|hu_hu|FALSE|FALSE (ssRNA)
RNA: GGGAGUUCUACAGUCCGACGAUCCCAGUCCUGUGCCACUCGUCUGGAUUCCCCCUUCAGCUGAUUGACAAACUUUGCUGCUAGCUCCAGAUCACCAUGCUCAAUGCAAUAGGAAGCAUAUGACAGUAAUUUAAAUGUGUUUAUCAACAGAGGAUUGAGCAUCA
B5: chr5:33455709:33455710:+_ENSG00000113407_ENST00000502553|hu_hu|motif|central (ssRNA)
RNA: GGGAGUUCUACAGUCCGACGAUCAGCUUGUUUUUCUUUAAUGAUUUUCUUACACAAAGCCUCCAGAGAAGAGAAAUCAUUGCGGGACACACCCCCUUCUUCGAGGUACAUGUCAUAAUAGAAUCCAUUUUCUAUUGGCGGACCCAACAGAGGAUUGAGCAUCA
B6: chr1:163112212:163112213:-_ENSG00000143248_ENST00000313961|hu_hu|hu_hu_hu_mus_False|68_108 (ssRNA)
RNA: GGGAGUUCUACAGUCCGACGAUCUUUAUUUAUCCAGAAGAGUGAGUUACAUACUAGGCAAAGUAUUGAAUACAAAAAUCAGGAAACAAACACUAUUGGUCCAGAAUUUAAAACUUUAUGAGCGAAGUGCUGGCACAGGACUUACAACAGAGGAUUGAGCAUCA
B7: chr7:56126341:56126342:+_ENSG00000146731_ENST00000540286|hu_mus|hu_hu_hu_mus_True|98_98 (ssRNA)
RNA: GGGAGUUCUACAGUCCGACGAUCCAUGUUUCUCCUCUUAGCUCUGCGCAGAGCUACGAUCCCUUCUUUCGCAAGGGCAUCUAAGGAAAAGGGGUCAAUCCCCUUUUGAUUAAUAACGACAAAUCCUUUAUCUGAGUCACCACACAACAGAGGAUUGAGCAUCA
B8: chr1:45984709:45984710:-_ENSG00000117450_ENST00000319248|hu_mus|FALSE|FALSE (ssRNA)
RNA: GGGAGUUCUACAGUCCGACGAUCUGCAUUUCCUGAAGACAUCUUGCUAUCAGCAGGGUCGAGCCACAGGUCUCACAAACAGAAAGAGCCGUGAGAACGCAGGAAGAGGUCGCCCGACAGCGCGCGCGGGGAGCUGCUUUUAUACAACAGAGGAUUGAGCAUCA
B9: chr7:129114946:129114947:-_ENSMUSG00000034951_ENSMUST00000057576|mus_mus|motif|central (ssRNA)
RNA: GGGAGUUCUACAGUCCGACGAUCAUCCACAAGCAUCAUCAAGCUGUUCUGCAUGCCGGUCAGCUUUGCAGAAAUCACAGCGGUGUCUUGAGUUUUGAAGGUCUCCUCAAUAUCAGCACUCAGCGUGCUCCACUUGUCAGCUUCCAACAGAGGAUUGAGCAUCA
B10: chr8:73998637:73998638:+_ENSMUSG00000074247_ENSMUST00000124745|mus_mus|motif|central (ssRNA)
RNA: GGGAGUUCUACAGUCCGACGAUCGCUUGACACGAGUUACAGCAUAAAUAAAAACUCAAGGAAAAUAAAUACAUGGAUCCGGUGCGGUUGGAGGGCGCGGGCUGGAUGUAGGAGGCGGGCCGCGCUUACACACGCGGGUGGGAGCAACAGAGGAUUGAGCAUCA
B11: chr2:44571066:44571067:-_ENSG00000138078_ENST00000409411|hu_mus|FALSE|FALSE (ssRNA)
RNA: GGGAGUUCUACAGUCCGACGAUCAACUCUGAUGCAAUCAAUGAAAGGCUGAUCCAAUUUAAGUUCUUCCAGGUUGAAUAAAACUUCAUAAUUAUCACUGUCAGCUUCUUCGUCUUUGGAACGAACCAAGCAGCAACCUUCUUGCAACAGAGGAUUGAGCAUCA
B12: chr4:95690885:95690886:+_ENSMUSG00000028572_ENSMUST00000156910|mus_mus|mus_mus_mus_hu_False|58_58 (ssRNA)
RNA: GGGAGUUCUACAGUCCGACGAUCUUUAGAAAAUGUUAAAUACCAUGCUAAAAUAUUUUCAAAGGCUUAUUUUAUUUUACUAAAAGACACAGGCAAGCAGACACUACAAGAAUAUAUGAAAAUGAAACUCAACAAUAUAACUGUCAACAGAGGAUUGAGCAUCA
B13: chr2:44428564:44428565:+_ENSG00000138032_ENST00000378551|hu_mus|motif|central (ssRNA)
RNA: GGGAGUUCUACAGUCCGACGAUCGAGAGCAGAGCCUGAUUUGUCAGCUGCCCUGAAGUCUUCAUUGGUGGUGAUGUGUUCGGAUAGAUGUGUUGAACAGUAAUUUGCCACUCGGGAUCCAGCAUGACCGUCAUAAACUGCAAACAACAGAGGAUUGAGCAUCA
B14: chr5:144470944:144470945:+_ENSMUSG00000018001_ENSMUST00000116456|mus_mus|motif|central (ssRNA)
RNA: GGGAGUUCUACAGUCCGACGAUCAUAUACAUUGUAUAACACUGAAGAAAUUAAUACAUAUGUACAUUAUUUACAUAGUAACGGUUUAUUGUAAAUAGAAAUGUUUUCUAAGAUAAAAAGAAAUCACAACAUGGUUUCUGGUCUCAACAGAGGAUUGAGCAUCA
B15: chr5:71494580:71494581:+_ENSG00000131711_ENST00000296755|hu_hu|FALSE|FALSE (ssRNA)
RNA: GGGAGUUCUACAGUCCGACGAUCAGAGGAACUGUGGCAAGUUGCUGUUUUCUCUUUGACUGCAGAGGUAGAAUCUGAAAAAGUAGGUGAAUAUAAAGGAGAGGACUCUCGUGGGGUGAGUGGAGAGAUAUCAGAUUUUGGAGACAACAGAGGAUUGAGCAUCA
B16: chr12:48362563:48362564:+_ENSG00000134291_ENST00000256686|hu_hu|hu_hu_hu_mus_False|18_88 (ssRNA)
RNA: GGGAGUUCUACAGUCCGACGAUCUCCGUCAAGCCCUUCGAUAGACCCAUAGACUCUAAACUGUAAUCACUUUGUAUGGGGAAGGAAAAGAAACGCCAAAAACUUUCCAAAAAGCGGUUCAAAAAGCAGGCGGGAGGGGGAGGUCAACAGAGGAUUGAGCAUCA
B17: 46801812_46804828_2414_CDS_ENSG00000175216_ENST00000415402|human|control|control (ssRNA)
RNA: GGGAGUUCUACAGUCCGACGAUCGGGACCAACAUACAGAUACAUCACGCCAAGCAGGGUUAUGGCAGCAGUCCUCACAGCUGGGUUUGUUGCAGCAAGAGCUGUCUUCACAUUGCUAAUGAAAGCUUUGACAUUCAACCCAGACAACAGAGGAUUGAGCAUCA
B18: 39339438_39339558_279_5pUTR_ENSG00000214114_ENST00000397572|human|control|control (ssRNA)
RNA: GGGAGUUCUACAGUCCGACGAUCUUGCAGUAGCCGAGGAGGGUGUUUAGAAUCAUAUAUUUUGGCUUCAGCUUUUAUCUUUGGAGUCUCCUUGAGUCGUGGCUGACUUGAUGUGGGCCUCUGGAGGAUGAGCAGUAACGAGCUCAACAGAGGAUUGAGCAUCA
B19: 40831691_40831811_1298_3pUTR_ENSG00000145592_ENST00000274242|human|control|control (ssRNA)
RNA: GGGAGUUCUACAGUCCGACGAUCUUCCAGCAAUUCAUGUUCCCUUCAACUGCCCCUGCCCUCUCACUCAGCAGUCCAGUUGACUUUGUCCCUUCAUUUUAAAAAAACAAAAAAAACCCCCAACCCUGUCAAUAAACCACGAAACAACAGAGGAUUGAGCAUCA
B20: chr4:95690885:95690886:+_ENSMUSG00000028572_ENSMUST00000156910|mus_mus|mus_mus_mus_hu_False|88_88 (ssRNA)
RNA: GGGAGUUCUACAGUCCGACGAUCUUUAGAAAAUGUUAAAUACCAUGAGCAUGCUAAUUCAAAGGCUUAUUUUAUUUUACCAGAAGUCACAGGCAAGCAGACACUACAAGAAUAUAUGAAAAUGAAACUCAACAAUAUAACUGUCAACAGAGGAUUGAGCAUCA
B21: chr5:132424205:132424206:+_ENSG00000170606_ENST00000304858|hu_hu|motif|central (ssRNA)
RNA: GGGAGUUCUACAGUCCGACGAUCGAUGGCACACUGCAAUGCACAGCCUCGAGUGACAGCUUCAUCAGCAUUUAAUGUUGUACGGAGUUCUUUACCGAAAAAUUUGCUGAUCUUCUCUUUUACCGCAGGGAUUCGUGUAGCACCCAACAGAGGAUUGAGCAUCA
B22: chr16:17389515:17389516:-_ENSMUSG00000041720_ENSMUST00000036161|mus_hu|motif|central (ssRNA)
RNA: GGGAGUUCUACAGUCCGACGAUCUCAGAUUCAAUCAGAAAAAUGCCCAAUGCAAUCACUGCAUCUCUCCGUCUUUCAUCGGACUGGAAGAUCCCAUGGAAAUCCACUGGACACAUGCAAAGAAGCUUUUGGACCUUCUCCAAGCAACAGAGGAUUGAGCAUCA

molecular target: T1, UNK ZnF1-3; experiment: nsRBNS (natural sequence RNA bind-n-seq); RBNS binding buffer (assumed for nsRBNS): 25 mM Tris pH 7.5, 150 mM KCl, 3 mM MgCl2, 0.01% Triton X-100, 500 ug/ml BSA, 20 U/ml SUPERase-In, 4 C; UNK is unkempt and MSI1 is Musashi-1; names of the RNAs are library labels; protein concentration not given here; high values mean tight binding

Binder	binding signal
B1	0.812 enrichment R
B2	2.18 enrichment R
B3	0.586 enrichment R
B4	1.23 enrichment R
B5	1.81 enrichment R
B6	1.69 enrichment R
B7	0.783 enrichment R
B8	1.82 enrichment R
B9	0.961 enrichment R
B10	2.37 enrichment R
B11	1.04 enrichment R
B12	1.59 enrichment R
B13	1.1 enrichment R
B14	0.814 enrichment R
B15	2.31 enrichment R
B16	2.4 enrichment R
B17	0.868 enrichment R
B18	1.41 enrichment R
B19	1.93 enrichment R
B20	2.17 enrichment R
B21	1.26 enrichment R
B22	0.625 enrichment R
